Results taken from the supplement of paper PMC5790926.
Structures can show the parent of a compound that is named as a salt. Inhibition of entry of single-cycle reporter particles into MDCK-SIAT1 cells, 3 h drug pretreatment, overnight read-out. IC50, lower = stronger. No active / inactive call; only inhibitors are listed. Mostly one titration per compound.

Key:
[1] = system: E-S-FLU (Zaire C15 EBOV-GP pseudotyped S-FLU) in MDCK-SIAT1 cells; test: IC50 inhibition of E-S-FLU (EBOV-GP pseudotyped influenza) infection
Experimental: (§1)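 MDCK-SIAT1 cells were pretreated for 3 h with two-fold drug dilutions, then exposed overnight to a single-cycle eGFP reporter particle coated with the named glycoprotein; eGFP read on fixed cells. Mostly one titration per compound; only inhibitors are listed.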

[2] = system: H5-S-FLU in MDCK-SIAT1 cells; test: IC50 inhibition of H5-S-FLU (H5 HA pseudotyped influenza) infection
Experimental: as §1

Compound | IC50 inhibition of E-S-FLU [1] | IC50 inhibition of H5-S-FLU [2]
C[C@@H]1O[C@@H](O[C@H]2C[C@@H](O)[C@]3(CO)[C@H]4[C@H](O)C[C@]5(C)[C@@H]([C@@H]6COC(=O)C6)CC[C@]5(O)[C@@H]4CC[C@]3(O)C2)[C@H](O)[C@H](O)[C@H]1O [Dihydroouabain] | 8.3 µM | 5.7 µM
O=C(Nc1ccc([N+](=O)[O-])cc1Cl)c1cc(Cl)ccc1O [Niclosamide] | 1.69 µM | 3.17 µM
O=C(c1ccc(OCCN2CCCCC2)cc1)c1c(-c2ccc(O)cc2)sc2cc(O)ccc12 [Raloxifene HCl] | 0.4 µM | 33.8 µM
CC(=O)S[C@@H]1CC2=CC(=O)CC[C@]2(C)[C@H]2CC[C@@]3(C)[C@@H](CC[C@@]34CCC(=O)O4)[C@H]12 [Spironolactone] | 30.4 µM | 33.1 µM
Nc1nc(N)c2nc(-c3ccccc3)c(N)nc2n1 [Triamterene] | 85.2 µM | 132 µM
COc1cc2ncnc(Nc3cccc(Cl)c3)c2cc1OC [Tyrphostin AG 1478] | 115 µM | 141 µM
